This is one part of the list. Cut-off read from the data, not from the text of the source: active = 3.2 or more and inactive = the rest. Most of these values are background signal.
Columns and labels:
Experiment in all cases: enrichment score (SH2-bound / input frequency) (ratio); bacterial display of known human phosphotyrosine sites (pTyr-Var adds point mutants) read by sequencing; higher = stronger binding; tyrosines were phosphorylated by kinases first
Settings in all cases: peptide library: Human pTyr
SHP2 C-SH2 domain E139D = target: SHP2 C-SH2 domain E139D
[1] = target: SHP2 C-SH2 domain wild-type
SHP2 N-SH2 domain L43F = target: SHP2 N-SH2 domain L43F
SHP2 N-SH2 domain T42A = target: SHP2 N-SH2 domain T42A
SHP2 N-SH2 domain T52S = target: SHP2 N-SH2 domain T52S
[2] = target: SHP2 N-SH2 domain wild-type

Measured: enrichment score
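Note: displayed peptides selected on beads carrying the immobilized SH2 domain, with library peptides lacking any tyrosine serving as negative controls.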

VRDQQLVYSAGVYRL [ANC2_HUMAN_810]
inactive: SHP2 C-SH2 domain E139D 0.91 | [1] 0.793 | SHP2 N-SH2 domain L43F 1.14 | SHP2 N-SH2 domain T42A 1.02 | SHP2 N-SH2 domain T52S 0.985 | [2] 0.917

KDETFGEYRSLESDN [L1CAM_HUMAN_1176]
inactive: SHP2 C-SH2 domain E139D 0.897 | [1] 0.762 | SHP2 N-SH2 domain L43F 0.801 | SHP2 N-SH2 domain T42A 0.713 | SHP2 N-SH2 domain T52S 0.904 | [2] 0.899

DLPDELLYGRAGYLY [LANC2_HUMAN_198]
inactive: SHP2 C-SH2 domain E139D 0.709 | [1] 0.72 | SHP2 N-SH2 domain L43F 0.793 | SHP2 N-SH2 domain T42A 0.805 | SHP2 N-SH2 domain T52S 0.773 | [2] 0.732

TVPESPNYRNTRTPR [LARP1_HUMAN_777]
inactive: SHP2 C-SH2 domain E139D 1.02 | [1] 0.973 | SHP2 N-SH2 domain L43F 0.934 | SHP2 N-SH2 domain T42A 1.32 | SHP2 N-SH2 domain T52S 1.05 | [2] 1.21

IPTSAPVYQQPQQQP [LASP1_HUMAN_171]
inactive: SHP2 C-SH2 domain E139D 0.749 | [1] 0.617 | SHP2 N-SH2 domain L43F 0.763 | SHP2 N-SH2 domain T42A 0.744 | SHP2 N-SH2 domain T52S 0.746 | [2] 0.814

ADEDEDDYHNPGALV [LAT_HUMAN_156_YA]
inactive: SHP2 C-SH2 domain E139D 1.2 | [1] 1.11 | SHP2 N-SH2 domain L43F 0.777 | SHP2 N-SH2 domain T42A 1.02 | SHP2 N-SH2 domain T52S 1.11 | [2] 1.31

VRDQQLVYSAGVARL [ANC2_HUMAN_810_YA]
inactive: SHP2 C-SH2 domain E139D 0.756 | [1] 0.683 | SHP2 N-SH2 domain L43F 0.744 | SHP2 N-SH2 domain T42A 0.673 | SHP2 N-SH2 domain T52S 1 | [2] 0.775

STEDTAEYSPFKGGY [ANDR_HUMAN_309]
inactive: SHP2 C-SH2 domain E139D 0.528 | [1] 0.48 | SHP2 N-SH2 domain L43F 0.49 | SHP2 N-SH2 domain T42A 0.519 | SHP2 N-SH2 domain T52S 0.497 | [2] 0.502

SSQISNDYVNMTGLD [LAX1_HUMAN_268]
inactive: SHP2 C-SH2 domain E139D 0.888 | [1] 0.582 | SHP2 N-SH2 domain L43F 0.672 | SHP2 N-SH2 domain T42A 0.883 | SHP2 N-SH2 domain T52S 0.714 | [2] 0.655

TFLASGDYADFQPFT [LAX1_HUMAN_345]
inactive: SHP2 C-SH2 domain E139D 0.472 | [1] 0.524 | SHP2 N-SH2 domain L43F 0.504 | SHP2 N-SH2 domain T42A 0.626 | SHP2 N-SH2 domain T52S 0.344 | [2] 0.454

DGEDDGDYESPNEEE [LCP2_HUMAN_128]
inactive: SHP2 C-SH2 domain E139D 0.78 | [1] 0.948 | SHP2 N-SH2 domain L43F 0.708 | SHP2 N-SH2 domain T42A 0.676 | SHP2 N-SH2 domain T52S 0.924 | [2] 0.844

FPNSNSMYIDRPPSG [LCP2_HUMAN_173]
inactive: SHP2 C-SH2 domain E139D 0.632 | [1] 0.475 | SHP2 N-SH2 domain L43F 0.608 | SHP2 N-SH2 domain T42A 0.509 | SHP2 N-SH2 domain T52S 0.578 | [2] 0.582

DPDSLADYFKKLNYK [LCP2_HUMAN_23]
inactive: SHP2 C-SH2 domain E139D 1.7 | [1] 1.71 | SHP2 N-SH2 domain L43F 1.02 | SHP2 N-SH2 domain T42A 1.54 | SHP2 N-SH2 domain T52S 0.963 | [2] 1.56

KIVSGKDYNVTANSK [LDHA_HUMAN_83]
inactive: SHP2 C-SH2 domain E139D 0.902 | [1] 0.755 | SHP2 N-SH2 domain L43F 1.37 | SHP2 N-SH2 domain T42A 0.924 | SHP2 N-SH2 domain T52S 0.88 | [2] 1.27

SKKTFASYMPQFQTC [LEPR_HUMAN_1141]
inactive: SHP2 C-SH2 domain E139D 1.81 | [1] 1.7 | SHP2 N-SH2 domain L43F 1.57 | SHP2 N-SH2 domain T42A 1.42 | SHP2 N-SH2 domain T52S 1.85 | [2] 2.32

AYPATGPYGAPAGPL [LGALS3_HUMAN_107]
inactive: SHP2 C-SH2 domain E139D 0.76 | [1] 0.46 | SHP2 N-SH2 domain L43F 0.303 | SHP2 N-SH2 domain T42A 0.453 | SHP2 N-SH2 domain T52S 0.478 | [2] 0.416

ALDEAAAYQSRDYYN [ANDR_HUMAN_359]
inactive: SHP2 C-SH2 domain E139D 0.562 | [1] 0.522 | SHP2 N-SH2 domain L43F 0.736 | SHP2 N-SH2 domain T42A 0.479 | SHP2 N-SH2 domain T52S 0.555 | [2] 0.462

AAPATGPYGAPAGPL [LGALS3_HUMAN_107_YA]
inactive: SHP2 C-SH2 domain E139D 0.79 | [1] 0.482 | SHP2 N-SH2 domain L43F 0.55 | SHP2 N-SH2 domain T42A 0.433 | SHP2 N-SH2 domain T52S 0.81 | [2] 0.758

AGPLIVPYNLPLPGG [LGALS3_HUMAN_118]
inactive: SHP2 C-SH2 domain E139D 0.639 | [1] 0.554 | SHP2 N-SH2 domain L43F 0.616 | SHP2 N-SH2 domain T42A 0.504 | SHP2 N-SH2 domain T52S 0.726 | [2] 0.69

GAPAPGVYPGPPSGP [LGALS3_HUMAN_79]
inactive: SHP2 C-SH2 domain E139D 0.564 | [1] 0.414 | SHP2 N-SH2 domain L43F 0.439 | SHP2 N-SH2 domain T42A 0.461 | SHP2 N-SH2 domain T52S 0.419 | [2] 0.405

GGERPFRYGPRTPVS [LIMC1_HUMAN_313]
inactive: SHP2 C-SH2 domain E139D 1.26 | [1] 1.42 | SHP2 N-SH2 domain L43F 1.01 | SHP2 N-SH2 domain T42A 1.39 | SHP2 N-SH2 domain T52S 1.62 | [2] 1.52

AAQVDVLYSRVCKPK [LIME1_HUMAN_200]
inactive: SHP2 C-SH2 domain E139D 0.946 | [1] 1.15 | SHP2 N-SH2 domain L43F 0.816 | SHP2 N-SH2 domain T42A 0.866 | SHP2 N-SH2 domain T52S 0.807 | [2] 0.794

SGPLENVYESIRELG [LIME1_HUMAN_254]
inactive: SHP2 C-SH2 domain E139D 0.755 | [1] 0.741 | SHP2 N-SH2 domain L43F 0.824 | SHP2 N-SH2 domain T42A 0.527 | SHP2 N-SH2 domain T52S 0.757 | [2] 0.806

EAPQDVTYAQLHSLT [LIRB1_HUMAN_614]
inactive: SHP2 C-SH2 domain E139D 0.893 | [1] 1.1 | SHP2 N-SH2 domain L43F 0.878 | SHP2 N-SH2 domain T42A 2.71 | SHP2 N-SH2 domain T52S 0.718 | [2] 0.61

SPAVPSIYATLAIHG [LIRB1_HUMAN_644]
inactive: SHP2 C-SH2 domain E139D 1.75 | [1] 2.17 | SHP2 N-SH2 domain L43F 1.3 | SHP2 N-SH2 domain T42A 2.66 | SHP2 N-SH2 domain T52S 1.5 | [2] 1.62

YGIGFSRYKEDYIET [LMTK2_HUMAN_291]
inactive: SHP2 C-SH2 domain E139D 0.64 | [1] 1.86 | SHP2 N-SH2 domain L43F 0.984 | SHP2 N-SH2 domain T42A 1.15 | SHP2 N-SH2 domain T52S 0.942 | [2] 1.18

FSRAKEDYIETDDKK [LMTK2_HUMAN_295_YA]
inactive: SHP2 C-SH2 domain E139D 1.2 | [1] 1.35 | SHP2 N-SH2 domain L43F 1.26 | SHP2 N-SH2 domain T42A 0.979 | SHP2 N-SH2 domain T52S 1.25 | [2] 1.26

AAYQSRDYYNFPLAL [ANDR_HUMAN_364]
inactive: SHP2 C-SH2 domain E139D 2.14 | [1] 2.35 | SHP2 N-SH2 domain L43F 2.11 | SHP2 N-SH2 domain T42A 2.17 | SHP2 N-SH2 domain T52S 2.42 | [2] 2.88

AGLAHSNYKEDAALT [LMTK3_HUMAN_292_YA]
inactive: SHP2 C-SH2 domain E139D 0.956 | [1] 0.788 | SHP2 N-SH2 domain L43F 0.659 | SHP2 N-SH2 domain T42A 0.79 | SHP2 N-SH2 domain T52S 0.56 | [2] 0.763

APSSGQIYGSGPQGY [LPP_HUMAN_244]
inactive: SHP2 C-SH2 domain E139D 0.5 | [1] 0.553 | SHP2 N-SH2 domain L43F 0.67 | SHP2 N-SH2 domain T42A 0.535 | SHP2 N-SH2 domain T52S 0.679 | [2] 0.683

GRAAEGAYAAGPGAG [LPP_HUMAN_301_YA]
inactive: SHP2 C-SH2 domain E139D 0.675 | [1] 0.615 | SHP2 N-SH2 domain L43F 0.817 | SHP2 N-SH2 domain T42A 0.579 | SHP2 N-SH2 domain T52S 0.584 | [2] 0.718

NIQELNVYSEAQEPK [LPXN_HUMAN_72]
inactive: SHP2 C-SH2 domain E139D 0.728 | [1] 0.627 | SHP2 N-SH2 domain L43F 0.645 | SHP2 N-SH2 domain T42A 0.639 | SHP2 N-SH2 domain T52S 0.816 | [2] 0.94

DLASQPVYCNLQSLG [LRC25_HUMAN_284]
inactive: SHP2 C-SH2 domain E139D 1.56 | [1] 1.32 | SHP2 N-SH2 domain L43F 1.31 | SHP2 N-SH2 domain T42A 1.27 | SHP2 N-SH2 domain T52S 1.49 | [2] 1.54

AAAQSRDYANFPLAL [ANDR_HUMAN_364_YA]
inactive: SHP2 C-SH2 domain E139D 0.528 | [1] 0.572 | SHP2 N-SH2 domain L43F 0.734 | SHP2 N-SH2 domain T42A 0.61 | SHP2 N-SH2 domain T52S 0.69 | [2] 0.576

VEIGNPTYKMAEGGE [LRP1_HUMAN_4473_YA]
inactive: SHP2 C-SH2 domain E139D 0.851 | [1] 0.716 | SHP2 N-SH2 domain L43F 0.77 | SHP2 N-SH2 domain T42A 0.818 | SHP2 N-SH2 domain T52S 0.966 | [2] 0.719

TNFTNPVYATLYMGG [LRP1_HUMAN_4507]
inactive: SHP2 C-SH2 domain E139D 1.86 | SHP2 N-SH2 domain L43F 1.99 | SHP2 N-SH2 domain T52S 1.53 | [2] 1.27
active: [1] 4.08 | SHP2 N-SH2 domain T42A 3.46

— the supplement of paper PMC10369915
